{"source": "PubChem BioAssay AID2546", "about": "(National Center for Advancing Translational Sciences (NCATS), 2010)", "note": "The campaign covered roughly 310,000 compounds. About 11,000 (3.5%) were called active. The shares of active, inactive and inconclusive entries below differ from those in the screen. Calls follow the shape of the dose curve; as a rule, active = well fitted inhibition curve with a large enough effect; inconclusive = small, poorly fitted or top-dose-only effect, or effect the other way; inactive = flat fitted curve, though single readings scatter. Potencies of inconclusive entries are left out as doubtful fits. % is scaled to controls: 0 for no effect and ±100 for the full control effect; potency is read from the fitted curve at half-maximal effect; tags tell the direction and shape of the fitted curve.", "data": [{"experiment": "VP16 counterscreen qHTS for inhibitors of ROR gamma transcriptional activity;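 also: Gal4-VP16 expression switched on by copper sulfate through the metallothionein promoter; nearly all actives have a fitted effect of over 50% in size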", "details": "Drosophila S2 Gal4-VP16 UAS-luciferase, luminescence, 20 h; activity, negative = inhibition: at 53.6 µM (top of the series)", "values": [{"smiles": "CC(=O)Nc1sc(-c2ccccc2)nc1-c1ccccc1", "Potency": "inconclusive [activator, single point]"}, {"smiles": "CC1CCCCN1C(=O)CSc1nnc(-c2c[nH]c3ccccc23)o1", "note": "(centres undefined)", "Potency": "inconclusive [inhibitor, single point]"}, {"smiles": "Cc1cc2nccc(-c3ccc(OCCCF)cc3)n2n1", "activity, negative = inhibition": "inactive: 1.46%"}, {"smiles": "S=C(c1ccc(-c2ccc(Br)cc2)o1)N1CCOCC1", "activity, negative = inhibition": "inactive: -9.01%"}, {"smiles": "O=S(=O)(Oc1ccc(Cl)cc1)c1cccc2cccnc12", "activity, negative = inhibition": "inactive: 3.05%"}, {"smiles": "Cc1cc(C)n(Cc2n[nH]c(=S)n2Cc2ccccc2)n1", "Potency": "inconclusive [inhibitor, partial curve]"}, {"smiles": "CC(=O)C1=C(C)NC(SCC(=O)c2ccc(F)cc2)=C(C#N)C1CC(C)C", "note": "(centres undefined)", "Potency": "active: 7.08 µM"}, {"smiles": "Cc1nn(-c2ccccc2)c(C)c1/C=N/NC(=O)c1cccs1", "Potency": "inconclusive [activator, full curve, poor fit]"}, {"smiles": "CC(C)c1ccc(NC(=O)N(CCc2nc3ccccc3[nH]2)C2CCCC2)cc1", "Potency": "inconclusive [inhibitor, single point]"}, {"smiles": "N#C/C(=C(/O)c1cccs1)c1nc2ccccc2[nH]1", "Potency": "inconclusive [inhibitor, partial curve]"}, {"smiles": "Cc1ccc(O)c(NC(=O)c2onc(C)c2Cl)c1", "Potency": "inconclusive [activator, full curve, poor fit]"}, {"smiles": "CC(=O)Nc1cccc(OCC(=O)Nc2ccccc2)c1", "Potency": "inconclusive [inhibitor, single point]"}, {"smiles": "NC(=S)N1CCCc2ccccc21", "Potency": "inconclusive [inhibitor, single point]"}, {"smiles": "COc1ccc(OC)c(N(CC(=O)N2CCCC2)S(C)(=O)=O)c1", "activity, negative = inhibition": "inactive: -5.62%"}, {"smiles": "COc1cc(C(C)=O)ccc1COc1ccc(C(=O)OCC(=O)NC2CCS(=O)(=O)C2)cc1OC", "note": "(centres undefined)", "Potency": "inconclusive [inhibitor, full curve, poor fit]"}, {"smiles": "CC(C)C[C@H](NC(=O)c1nc[nH]c1C(=O)NC1CCN(C(=O)OC(C)(C)C)CC1)C(=O)OC(C)(C)C", "Potency": "active: 7.08 µM"}, {"smiles": "CC(C)CNC(=S)NC(=O)c1ccc(F)cc1", "Potency": "inconclusive [inhibitor, single point]"}, {"smiles": "COC(=O)c1c(NC(=O)COC(=O)c2ccc(O)cc2)sc2c1CCCCC2", "Potency": "active: 17.8 µM"}, {"smiles": "COC(=O)Nc1ccc(S(=O)(=O)Nc2cnc3ccccc3n2)cc1", "Potency": "inconclusive [inhibitor, partial curve]"}, {"smiles": "Cc1onc(-c2c(F)cccc2Cl)c1C(=O)Nc1nnc(C(F)(F)F)s1", "Potency": "inconclusive [inhibitor, single point]"}, {"smiles": "CN1CCC(=C2c3ccccc3Sc3ccccc32)CC1", "Potency": "inconclusive [inhibitor, single point]"}, {"smiles": "Cc1cccc(-n2c(SCC(=O)Nc3ccc4c(c3)OCO4)nnc2-c2ccoc2C)c1", "Potency": "inconclusive [inhibitor, single point]"}, {"smiles": "COc1cc(OC)cc(-c2nnc3n2N=C(c2ccc(OC)c(OC)c2)CS3)c1", "activity, negative = inhibition": "inactive: -3.15%"}, {"smiles": "CCOc1ccc(S(=O)(=O)NNC(=S)Nc2ccc(Br)cc2)cc1", "Potency": "inconclusive [inhibitor, single point]"}, {"smiles": "Cc1cccc2cc(C#N)c(SCc3nnc(-c4ccccc4[N+](=O)[O-])o3)nc12", "Potency": "inconclusive [inhibitor, single point]"}, {"smiles": "Fc1ccc2c(c1)C(c1ccncc1)=NNC(c1ccc(Cl)cc1)=N2", "Potency": "inconclusive [inhibitor, single point]"}, {"smiles": "COC(=O)c1sccc1S(=O)(=O)NCc1ccc(S(N)(=O)=O)cc1", "activity, negative = inhibition": "inactive: -6.78%"}, {"smiles": "CCCCNC(=S)N(C)/N=C/c1ccc(F)cc1", "Potency": "inconclusive [inhibitor, single point]"}, {"smiles": "Cc1cc(C)c2c(N)c(C(=O)N/N=C/c3cccnc3)sc2n1", "activity, negative = inhibition": "inactive: -1.57%"}, {"smiles": "Cc1nc2ccccn2c1C(=O)N/N=C/c1cc(C)n(-c2ccc(Br)cc2)c1C", "Potency": "inconclusive [inhibitor, single point]"}, {"smiles": "COc1ccc(CNC(=S)Nc2ccccc2)cc1Cl", "Potency": "inconclusive [inhibitor, single point]"}, {"smiles": "Cc1cccc(-n2ncc3c(NC(C)C)ncnc32)c1", "Potency": "inconclusive [inhibitor, single point]"}, {"smiles": "O=C(Cc1cccc2ccccc12)N/N=C/c1ccc(Sc2cccc3cccnc23)o1", "Potency": "inconclusive [inhibitor, partial curve]"}, {"smiles": "N#CCc1ccc(Oc2ccc([N+](=O)[O-])cn2)cc1", "Potency": "inconclusive [inhibitor, single point]"}, {"smiles": "CSc1cccc(NC(=O)c2ccc(Cl)nc2)c1", "Potency": "inconclusive [inhibitor, single point]"}, {"smiles": "CCOC(=O)c1sc(N(Cc2ccccc2)C(=O)COC(=O)c2ccccc2O)nc1C", "activity, negative = inhibition": "inactive: 0.438%"}, {"smiles": "Cc1cc(Cl)ccc1NC(=S)N1CCN(Cc2ccc3c(c2)OCO3)CC1", "Potency": "inconclusive [inhibitor, single point]"}, {"smiles": "CCCCc1ccc(NC(=S)NN2CCOCC2)cc1", "activity, negative = inhibition": "inactive: -26%"}, {"smiles": "N#CC(C#N)=C/C(C#N)=C(/N)N1CCN(c2ccc(Cl)cc2)CC1", "Potency": "inconclusive [inhibitor, single point]"}, {"smiles": "O=C(CSc1nnc(-c2ccc(C(F)(F)F)cn2)o1)Nc1ccccc1Cl", "activity, negative = inhibition": "inactive: -13.4%"}, {"smiles": "COc1ccc(CSCC(=O)Nc2ccc(S(=O)(=O)N3CCCCCC3)cc2)cc1", "activity, negative = inhibition": "inactive: -20.2%"}, {"smiles": "O=C(C1COc2ccccc2O1)N1CCN(c2ccccc2F)CC1", "note": "(centres undefined)", "Potency": "inconclusive [activator, single point]"}, {"smiles": "Cc1cc(=O)oc2c(C(=O)/C=C\\c3cccs3)c(O)ccc12", "Potency": "inconclusive [inhibitor, single point]"}, {"smiles": "COc1ccc(OC)c(C(=O)CSc2nnc(Cc3cccs3)n2C)c1", "Potency": "inconclusive [inhibitor, single point]"}, {"smiles": "Cc1cccc(NC(=O)c2sc3nc(N)c(C#N)cc3c2N)c1", "Potency": "inconclusive [activator, full curve]"}, {"smiles": "CN1CCN(C(=S)NC(=O)c2cccc(S(=O)(=O)N(C)C)c2)CC1", "Potency": "inconclusive [inhibitor, single point]"}, {"smiles": "COc1ccc(-n2cnc(N)c2C(=O)c2cccc([N+](=O)[O-])c2)cc1", "activity, negative = inhibition": "inactive: -19.1%"}, {"smiles": "CCCOc1ccc(N)cc1N", "Potency": "inconclusive [inhibitor, single point]"}, {"smiles": "CC(=O)c1cc(C#N)c(SCc2ccccn2)nc1C", "Potency": "inconclusive [inhibitor, single point]"}, {"smiles": "Cc1ccccc1NC(=O)c1nc[nH]c1C(=O)NCc1ccccc1", "Potency": "active: 5.01 µM"}, {"smiles": "CCOC(=O)Cc1c(C)nc2cc(-c3ccc(Cl)cc3)[nH]n2c1=O", "activity, negative = inhibition": "inactive: -6.79%"}, {"smiles": "COc1ccc(C2=NN(C(=O)CSc3nnc(C)n3C)C(c3ccco3)C2)cc1", "note": "(centres undefined)", "activity, negative = inhibition": "inactive: -1.65%"}, {"smiles": "CSc1nc2ccc(NC(=O)c3ccc(Cl)s3)cc2s1", "Potency": "inconclusive [activator, full curve, poor fit]"}, {"smiles": "Cn1c(OCc2cccnc2)nc2c1c(=O)n(Cc1ccc(F)cc1)c(=O)n2C", "activity, negative = inhibition": "inactive: -12.9%"}, {"smiles": "COc1ccc(-c2nc3cnc(N4CCN(C)CC4)nc3n(CCC#N)c2=O)cc1", "activity, negative = inhibition": "inactive: 0.847%"}, {"smiles": "O=C(NCCO)C(F)(F)C(F)(F)C(F)(F)OC(F)(C(=O)NCCO)C(F)(F)F", "note": "(centres undefined)", "activity, negative = inhibition": "inactive: -2.25%"}, {"smiles": "CSc1ccccc1-c1nnc(NC(=O)Cc2ccccc2)o1", "Potency": "active: 2.51 µM"}, {"smiles": "CCOC(=O)c1oc2nc(CC(C)C)c3c(c2c1N)CCC3", "activity, negative = inhibition": "inactive: -4.69%"}, {"smiles": "Cc1ccc(S(=O)(=O)N2Cc3ccccc3CC2C(=O)Nc2ccc3c(c2)OCO3)cc1", "note": "(centres undefined)", "Potency": "inconclusive [inhibitor, single point]"}, {"smiles": "Cc1[nH]nc(-c2ccc(OCc3cnn(-c4ccccc4)c3)cc2O)c1Oc1ccc(F)cc1", "Potency": "active: 10 µM"}, {"smiles": "N#Cc1ccc(NC(=S)NC(=O)CCc2ccc(S(=O)(=O)N3CCOCC3)cc2)cc1", "activity, negative = inhibition": "inactive: 3.44%"}, {"smiles": "O=C(Nc1nc2ccccc2[nH]1)C1CC1", "Potency": "inconclusive [activator, single point]"}, {"smiles": "COC(=O)C1=NN(C(=O)c2ccc(Br)cc2)C(O)(C(C)(C)C)C1", "note": "(centres undefined)", "Potency": "inconclusive [inhibitor, single point]"}, {"smiles": "CCOc1cc(NC(=S)NCC2CCCO2)c(OCC)cc1NC(=O)c1cccc(F)c1", "note": "(centres undefined)", "Potency": "active: 4.47 µM"}, {"smiles": "CN1CCN(C(=O)c2cc(Oc3c(F)c(F)c(F)c(F)c3F)cc(C(=O)N3CCN(C)CC3)c2)CC1", "activity, negative = inhibition": "inactive: -0.864%"}, {"smiles": "CN(C)C(=O)c1ccc(-c2nc(NCc3ccccc3)c3ccccc3n2)cc1", "activity, negative = inhibition": "inactive: 17.7%"}, {"smiles": "O=C(CSCCO)Nc1ccc(C2CCCCC2)cc1", "Potency": "active: 5.62 µM"}, {"smiles": "CCCCc1ccc(NC(=S)N2CCN(c3ncccn3)CC2)cc1", "Potency": "inconclusive [inhibitor, single point]"}, {"smiles": "O=C(N/N=C/C=C/c1ccccc1)c1cccs1", "Potency": "active: 2.82 µM"}, {"smiles": "CCN(CC)c1ccc(C(=C2C=CC(=[N+](CC)Cc3cccc(S(=O)(=O)[O-])c3)C=C2)c2ccc(N(CC)Cc3cccc(S(=O)(=O)O)c3)cc2)cc1", "Potency": "active: 11.2 µM"}, {"smiles": "COc1ccc(CNc2ccc3c(c2)ncn3-c2ccccc2OC)cc1", "Potency": "inconclusive [inhibitor, single point]"}, {"smiles": "CCOC(=O)c1[nH]c2ccccc2c1NC(=S)Nc1cccc(C)c1", "Potency": "inconclusive [inhibitor, single point]"}, {"smiles": "C=C(C)CNC(=S)N/N=C/c1ccco1", "Potency": "active: 3.16 µM"}, {"smiles": "COc1ccc(-c2ccc(-c3noc(-c4ccccc4F)n3)c(OC)n2)cc1", "Potency": "inconclusive [inhibitor, full curve]"}]}]}
